Results taken from PubChem BioAssay AID488969 (Vanderbilt High Throughput Screening Facility, 2010).
Over roughly 110,000 compounds, “z-score” has its median near -0.1; the highest 2% begin near 2. The list shows a part of the results.

Each compound was assayed against Metabotropic glutamate receptor 8 (Rattus norvegicus) (UniProt P70579) (assay: mGluR8 Gi/Go-coupled signaling modulation – cell-based, rat, thallium flux, HTS, primary screen (AID 488969)). Conditions: HEK293 rat mGluR8, GIRK (G protein-gated inwardly rectifying potassium channel) thallium flux, FluoZin2; at 10 µM; stronger effect = higher value; submaximal glutamate (EC20) added with thallium.
Chain of UniProt P70579 (P70579 whole entry, looked up): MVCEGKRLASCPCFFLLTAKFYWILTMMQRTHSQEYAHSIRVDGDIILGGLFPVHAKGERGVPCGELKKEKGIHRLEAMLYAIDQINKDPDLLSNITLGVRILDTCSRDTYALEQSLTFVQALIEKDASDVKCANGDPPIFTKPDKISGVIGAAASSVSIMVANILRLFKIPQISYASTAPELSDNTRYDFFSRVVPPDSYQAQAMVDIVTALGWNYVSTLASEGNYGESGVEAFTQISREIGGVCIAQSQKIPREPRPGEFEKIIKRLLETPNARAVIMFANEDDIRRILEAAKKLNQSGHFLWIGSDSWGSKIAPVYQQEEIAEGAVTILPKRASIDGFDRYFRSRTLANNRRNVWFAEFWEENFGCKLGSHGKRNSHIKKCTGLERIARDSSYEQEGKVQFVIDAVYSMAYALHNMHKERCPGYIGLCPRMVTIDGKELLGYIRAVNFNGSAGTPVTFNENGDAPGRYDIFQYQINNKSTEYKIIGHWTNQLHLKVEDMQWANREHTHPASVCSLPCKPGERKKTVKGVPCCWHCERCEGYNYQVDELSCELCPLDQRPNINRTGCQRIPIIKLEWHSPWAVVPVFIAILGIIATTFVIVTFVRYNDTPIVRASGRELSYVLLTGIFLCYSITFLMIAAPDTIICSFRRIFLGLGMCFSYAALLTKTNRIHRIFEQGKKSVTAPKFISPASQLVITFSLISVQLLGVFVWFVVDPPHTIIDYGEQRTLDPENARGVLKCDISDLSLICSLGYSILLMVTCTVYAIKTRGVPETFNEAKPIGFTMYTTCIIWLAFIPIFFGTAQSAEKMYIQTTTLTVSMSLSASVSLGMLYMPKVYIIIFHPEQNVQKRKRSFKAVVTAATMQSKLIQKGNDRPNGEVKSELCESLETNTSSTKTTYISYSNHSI

SMILES | z-score
O=C(CN1CCC(O)(c2ccccc2F)CC1)NCCc1c[nH]c2ccccc12 | -0.657
Cc1ccc(C)c(C(=O)CC2(O)C(=O)Nc3ccccc32)c1 (stereo unspecified) | 0.94
CCCNC(=O)Cn1cnc2sc(C(=O)N3CCN(c4ccc(F)cc4)CC3)c(C)c2c1=O | -0.159
O=C(CN1CCN(c2ccccn2)CC1)Nc1ccc2ccccc2c1 | -0.148
Cc1nn(-c2cccc3cccnc23)c(=O)c2ccccc12 | -0.222
CCN(CC)S(=O)(=O)c1ccc(Oc2ccccc2)cc1 | -0.314
COc1ccc(C(=O)Nc2nc(-c3cccs3)cs2)cc1 | 0.215
O=C(O)c1cccc(C(=O)O)n1 | 0.451
CCc1ccc2c(c1)C(c1ccc([N+](=O)[O-])cc1)=NNC(c1ccc(F)cc1)=N2 | -0.112
CCCc1nc2ccccc2c(=O)n1-c1c(C)n(C)n(-c2ccccc2)c1=O | 0.0215
CCOC(=O)c1ccc2c(c1)nc(SCC(=O)c1cc3ccccc3o1)n2CC | 1.43
COc1ccc(C(=O)NCS(=O)(=O)c2ccc(C)cc2)cc1 | -0.551
O=C(Nc1nnc(C2CCCCC2)s1)c1cccs1 | -0.112
COC(=O)COc1cccc2c(=O)n(CC(=O)N3CCCc4ccccc43)ccc12 | -0.0104
COc1ccc2c(c1)[n+](=O)c(C(C)=O)c(C)n2[O-] | -0.432
Cc1ccc(Cn2c(C)nc3c(c2=O)c2nc4ccccc4nc2n3Cc2ccco2)cc1 | -0.694

SMILES | z-score
Cn1c(C(=O)NC2CCCC2)cc2c(=O)n(C)c3ccccc3c21 | -0.47
O=C(CN1CCN(CC(=O)Nc2ccc3c(c2)OCO3)CC1)Nc1ccc(F)cc1 | -0.509
COC(=O)CCC(=O)NC(=S)Nc1c(C)cccc1C | -0.125
CCCCC(=O)Nc1ccc2c3c(cccc13)C(=O)N2CC | -0.239
CC(C)c1ccc(S(=O)(=O)Nc2ccc(SC(F)F)cc2)cc1 | 0.236
CC(C)(C)C(=O)N1CCc2cc(-c3csc(N)n3)ccc21 | 0.0758
CSc1nnc2c(n1)OC(C)N(C(=O)c1ccccc1)c1ccccc1-2 (stereo unspecified) | -0.907
CCOC(=O)c1c(C)n(C)c2ccc(OCC(O)CN3CCCCCC3)cc12 (stereo unspecified) | 0.855
COc1ccc(NC(=O)CSc2ncc(-c3ccc(F)cc3)n2Cc2ccco2)cc1 | -0.157
COc1ccc(N2CCN(C(=O)C(OC(C)=O)c3ccccc3)CC2)cc1 (stereo unspecified) | -0.159
C=CCCCCCCCCC(=O)Nc1c[nH]c(=O)[nH]c1=O | 0.477
CC(=O)c1ccc(-c2nc3c4ccccc4ccn3c2C(C)=O)o1 | -0.508
CNC(=O)C1CC(=O)N(Cc2ccccc2)C(=Nc2ccc(OC)cc2)S1 (stereo unspecified) | -0.0283
Cc1cc(=O)n2[nH]cnc2n1 | -0.209
C=CCN=C1CC(C)(C)CC(=O)/C1=C(\O)c1ccccc1 | -0.221
